# Assay results as given in publication PMC12820563.
# Some of the results follow. The list includes weakly bound sequences.
# Biological target: T1, MBP-FoxP3dN (UniProt Q99JB6)
# T1 sequence: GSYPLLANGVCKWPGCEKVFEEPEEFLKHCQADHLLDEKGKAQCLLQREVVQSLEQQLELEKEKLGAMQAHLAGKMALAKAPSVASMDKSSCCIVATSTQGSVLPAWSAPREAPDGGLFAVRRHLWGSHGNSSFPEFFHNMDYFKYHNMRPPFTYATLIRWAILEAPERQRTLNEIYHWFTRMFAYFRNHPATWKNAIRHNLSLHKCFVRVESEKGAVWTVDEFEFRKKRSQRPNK
# Experiment: PD-seq (MBP pull-down with sequencing)
# Details: 20 mM Tris-HCl pH 7.5, 100 mM NaCl, 1.5 mM MgCl2, 0.4 uM protein, 0.1 uM dsDNA library, 30 min, room temperature, amylose pull-down; high values mean tight binding; double strand, one strand shown
row,Sequence,binding signal (RPM ratio (pull-down/input))
1,GATGATTGTTCTCCCAGCTGATGAATTTGTCACTTCGAGTAAACAAATTTTCCTAATCTTTCTGTTCAAGCGCCATCTAC,5.39
2,GATGATTGTTCTCCCAGCTGATGAATTACCATACTCGAGTAAACAAATTTTCCTAATCTTTCTGTTCAAGCGCCATCTAC,0.427
3,GATGATTGTTCTCCCAGCTGATGAATTCGAGACGTCGAGTAAACAAATTTTCCTAATCTTTCTGTTCAAGCGCCATCTAC,0.277
4,GATGATTGTTCTCCCAGCTGATGAATTATGGTATTCGAGTAAACAAATTTTCCTAATCTTTCTGTTCAAGCGCCATCTAC,1.62
5,GATGATTGTTCTCCCAGCTGATGAATTGCCCGAATCGAGTAAACAAATTTTCCTAATCTTTCTGTTCAAGCGCCATCTAC,0.311
6,GATGATTGTTCTCCCAGCTGATGAATTTCCGGTCTCGAGTAAACAAATTTTCCTAATCTTTCTGTTCAAGCGCCATCTAC,0.32
7,GATGATTGTTCTCCCAGCTGATGAATTTTTCATGTCGAGTAAACAAATTTTCCTAATCTTTCTGTTCAAGCGCCATCTAC,0.271
8,GATGATTGTTCTCCCAGCTGATGAATTTCATACGTCGAGTAAACAAATTTTCCTAATCTTTCTGTTCAAGCGCCATCTAC,0.418
9,GATGATTGTTCTCCCAGCTGATGAATTGGCACTATCGAGTAAACAAATTTTCCTAATCTTTCTGTTCAAGCGCCATCTAC,0.509
10,GATGATTGTTCTCCCAGCTGATGAATTCCGGCCATCGAGTAAACAAATTTTCCTAATCTTTCTGTTCAAGCGCCATCTAC,1.02
11,GATGATTGTTCTCCCAGCTGATGAATTAGGTTAATCGAGTAAACAAATTTTCCTAATCTTTCTGTTCAAGCGCCATCTAC,0.369
12,GATGATTGTTCTCCCAGCTGATGAATTCCGTTAATCGAGTAAACAAATTTTCCTAATCTTTCTGTTCAAGCGCCATCTAC,0.357
13,GATGATTGTTCTCCCAGCTGATGAATTCATGGCTTCGAGTAAACAAATTTTCCTAATCTTTCTGTTCAAGCGCCATCTAC,0.554
14,GATGATTGTTCTCCCAGCTGATGAATTAGCGGTCTCGAGTAAACAAATTTTCCTAATCTTTCTGTTCAAGCGCCATCTAC,0.555
15,GATGATTGTTCTCCCAGCTGATGAATTAGAAACATCGAGTAAACAAATTTTCCTAATCTTTCTGTTCAAGCGCCATCTAC,0.637
16,GATGATTGTTCTCCCAGCTGATGAATTGGACACATCGAGTAAACAAATTTTCCTAATCTTTCTGTTCAAGCGCCATCTAC,0.519
17,GATGATTGTTCTCCCAGCTGATGAATTATTCGCGTCGAGTAAACAAATTTTCCTAATCTTTCTGTTCAAGCGCCATCTAC,0.563
18,GATGATTGTTCTCCCAGCTGATGAATTTATAGATTCGAGTAAACAAATTTTCCTAATCTTTCTGTTCAAGCGCCATCTAC,0.611
19,GATGATTGTTCTCCCAGCTGATGAATTGAGGAAATCGAGTAAACAAATTTTCCTAATCTTTCTGTTCAAGCGCCATCTAC,0.246
20,GATGATTGTTCTCCCAGCTGATGAATTATTTGTATCGAGTAAACAAATTTTCCTAATCTTTCTGTTCAAGCGCCATCTAC,2.84
21,GATGATTGTTCTCCCAGCTGATGAATTGTTGTTTTCGAGTAAACAAATTTTCCTAATCTTTCTGTTCAAGCGCCATCTAC,7.89

row,Sequence,binding signal (RPM ratio (pull-down/input))
1,GATGATTGTTCTCCCAGCTGATGAATTTCTAGGATCGAGTAAACAAATTTTCCTAATCTTTCTGTTCAAGCGCCATCTAC,0.191
2,GATGATTGTTCTCCCAGCTGATGAATTTCAAGCGTCGAGTAAACAAATTTTCCTAATCTTTCTGTTCAAGCGCCATCTAC,0.409
3,GATGATTGTTCTCCCAGCTGATGAATTTCTAGTCTCGAGTAAACAAATTTTCCTAATCTTTCTGTTCAAGCGCCATCTAC,0.3
4,GATGATTGTTCTCCCAGCTGATGAATTCAGGTACTCGAGTAAACAAATTTTCCTAATCTTTCTGTTCAAGCGCCATCTAC,0.5
5,GATGATTGTTCTCCCAGCTGATGAATTTGAAGTGTCGAGTAAACAAATTTTCCTAATCTTTCTGTTCAAGCGCCATCTAC,0.698
6,GATGATTGTTCTCCCAGCTGATGAATTATGAGATTCGAGTAAACAAATTTTCCTAATCTTTCTGTTCAAGCGCCATCTAC,0.682
7,GATGATTGTTCTCCCAGCTGATGAATTCGTACACTCGAGTAAACAAATTTTCCTAATCTTTCTGTTCAAGCGCCATCTAC,0.638
8,GATGATTGTTCTCCCAGCTGATGAATTCACAGAGTCGAGTAAACAAATTTTCCTAATCTTTCTGTTCAAGCGCCATCTAC,0.193
9,GATGATTGTTCTCCCAGCTGATGAATTGAGTGGGTCGAGTAAACAAATTTTCCTAATCTTTCTGTTCAAGCGCCATCTAC,0.538
10,GATGATTGTTCTCCCAGCTGATGAATTCCGCGTGTCGAGTAAACAAATTTTCCTAATCTTTCTGTTCAAGCGCCATCTAC,4.38
11,GATGATTGTTCTCCCAGCTGATGAATTTAAGGAATCGAGTAAACAAATTTTCCTAATCTTTCTGTTCAAGCGCCATCTAC,0.245
12,GATGATTGTTCTCCCAGCTGATGAATTATCCTCGTCGAGTAAACAAATTTTCCTAATCTTTCTGTTCAAGCGCCATCTAC,0.292
13,GATGATTGTTCTCCCAGCTGATGAATTTACCCATTCGAGTAAACAAATTTTCCTAATCTTTCTGTTCAAGCGCCATCTAC,0.478
14,GATGATTGTTCTCCCAGCTGATGAATTTTGCGATTCGAGTAAACAAATTTTCCTAATCTTTCTGTTCAAGCGCCATCTAC,2.4
15,GATGATTGTTCTCCCAGCTGATGAATTCCTTTTATCGAGTAAACAAATTTTCCTAATCTTTCTGTTCAAGCGCCATCTAC,0.345
16,GATGATTGTTCTCCCAGCTGATGAATTTAACATATCGAGTAAACAAATTTTCCTAATCTTTCTGTTCAAGCGCCATCTAC,0.555
17,GATGATTGTTCTCCCAGCTGATGAATTTTGCACCTCGAGTAAACAAATTTTCCTAATCTTTCTGTTCAAGCGCCATCTAC,2.8
18,GATGATTGTTCTCCCAGCTGATGAATTTATTCCGTCGAGTAAACAAATTTTCCTAATCTTTCTGTTCAAGCGCCATCTAC,0.546
19,GATGATTGTTCTCCCAGCTGATGAATTAACCAAATCGAGTAAACAAATTTTCCTAATCTTTCTGTTCAAGCGCCATCTAC,0.187
20,GATGATTGTTCTCCCAGCTGATGAATTGCAACTGTCGAGTAAACAAATTTTCCTAATCTTTCTGTTCAAGCGCCATCTAC,2.99
21,GATGATTGTTCTCCCAGCTGATGAATTGTTGCTTTCGAGTAAACAAATTTTCCTAATCTTTCTGTTCAAGCGCCATCTAC,3.26

row,Sequence,binding signal (RPM ratio (pull-down/input))
1,GATGATTGTTCTCCCAGCTGATGAATTACGGAGTTCGAGTAAACAAATTTTCCTAATCTTTCTGTTCAAGCGCCATCTAC,0.478
2,GATGATTGTTCTCCCAGCTGATGAATTCCCACACTCGAGTAAACAAATTTTCCTAATCTTTCTGTTCAAGCGCCATCTAC,0.312
3,GATGATTGTTCTCCCAGCTGATGAATTTTGAGATTCGAGTAAACAAATTTTCCTAATCTTTCTGTTCAAGCGCCATCTAC,0.705
4,GATGATTGTTCTCCCAGCTGATGAATTTAACGTTTCGAGTAAACAAATTTTCCTAATCTTTCTGTTCAAGCGCCATCTAC,0.784
5,GATGATTGTTCTCCCAGCTGATGAATTCCTTACGTCGAGTAAACAAATTTTCCTAATCTTTCTGTTCAAGCGCCATCTAC,0.256
6,GATGATTGTTCTCCCAGCTGATGAATTAGGGATTTCGAGTAAACAAATTTTCCTAATCTTTCTGTTCAAGCGCCATCTAC,0.393
7,GATGATTGTTCTCCCAGCTGATGAATTACCCCAATCGAGTAAACAAATTTTCCTAATCTTTCTGTTCAAGCGCCATCTAC,0.275
8,GATGATTGTTCTCCCAGCTGATGAATTTATACTGTCGAGTAAACAAATTTTCCTAATCTTTCTGTTCAAGCGCCATCTAC,0.843
9,GATGATTGTTCTCCCAGCTGATGAATTAAGGAATTCGAGTAAACAAATTTTCCTAATCTTTCTGTTCAAGCGCCATCTAC,0.681
10,GATGATTGTTCTCCCAGCTGATGAATTTCGTGGCTCGAGTAAACAAATTTTCCTAATCTTTCTGTTCAAGCGCCATCTAC,0.544
11,GATGATTGTTCTCCCAGCTGATGAATTCGGGTGGTCGAGTAAACAAATTTTCCTAATCTTTCTGTTCAAGCGCCATCTAC,0.486
12,GATGATTGTTCTCCCAGCTGATGAATTTTCGACTTCGAGTAAACAAATTTTCCTAATCTTTCTGTTCAAGCGCCATCTAC,0.478
13,GATGATTGTTCTCCCAGCTGATGAATTTCGCTGGTCGAGTAAACAAATTTTCCTAATCTTTCTGTTCAAGCGCCATCTAC,0.645
14,GATGATTGTTCTCCCAGCTGATGAATTGTGTCGGTCGAGTAAACAAATTTTCCTAATCTTTCTGTTCAAGCGCCATCTAC,0.899
15,GATGATTGTTCTCCCAGCTGATGAATTGTCAGACTCGAGTAAACAAATTTTCCTAATCTTTCTGTTCAAGCGCCATCTAC,0.272
16,GATGATTGTTCTCCCAGCTGATGAATTGACTGCTTCGAGTAAACAAATTTTCCTAATCTTTCTGTTCAAGCGCCATCTAC,0.439
17,GATGATTGTTCTCCCAGCTGATGAATTGGGGTGGTCGAGTAAACAAATTTTCCTAATCTTTCTGTTCAAGCGCCATCTAC,0.452
18,GATGATTGTTCTCCCAGCTGATGAATTCATGTATTCGAGTAAACAAATTTTCCTAATCTTTCTGTTCAAGCGCCATCTAC,1.88
19,GATGATTGTTCTCCCAGCTGATGAATTGTATTTGTCGAGTAAACAAATTTTCCTAATCTTTCTGTTCAAGCGCCATCTAC,6.43
20,GATGATTGTTCTCCCAGCTGATGAATTAGCGCATTCGAGTAAACAAATTTTCCTAATCTTTCTGTTCAAGCGCCATCTAC,7.23
21,GATGATTGTTCTCCCAGCTGATGAATTTCCGAACTCGAGTAAACAAATTTTCCTAATCTTTCTGTTCAAGCGCCATCTAC,0.207
